Read counts are not given, so values of variants with three or more changes are uncertain.
B1: LINE1-mini (parent)
chain: GGCAGAGCUCAACACAGCGUGGCAAAGUGGCUGUGGCUAGACUGCC

Variants of: B1
Test: self-cleavage, relative activity (ratio to wild type); higher = more cleavage; in vitro, sequencing; the parent is a self-cleaving ribozyme

| Variant | self-cleavage |
| --- | --- |
| GGCAGAGCUCAUCACAGCGUGGCAAAGUGGAUGUGGUAAGACUGCC [A12U C31A C37U U38A] | 0 |
| GGCAGAGCUAAUCACAGCGUGUCGACGUGGCUGUGGCUAGACUGCC [C10A A12U G22U A24G A26C] | 0.01 |
| AGCAGAGCUCAAGACUGCGUGGCAAAGUGGCUGUGGCUAGACUGCC [G1A C13G A16U] | 0.05 |
| GGCAAAACUCAACACAGCGUGGCAACGUGGCUGUGGCUAGACUGCC [G5A G7A A26C] | 0.41 |
| GGCAGAGCUCAACACUGCGUGACACAGUAGCUGUGGCUAGUCUGCC [A16U G22A A25C G29A A41U] | 0.11 |
| GGCAGAGAUCAACACAGCGUGGCAAAGUACCUUUGGCUAGACUGCC [C8A G29A G30C G33U] | 0.27 |
| GGCAGAGCUCACCACAGCGUGACAAAAUGGCUGUUUCUAGACUGCC [A12C G22A G27A G35U G36U] | 0.02 |
| GGCAUAGUUCAACACAGCGUGCCAAAGUCGCUGUGGCUAGACUGCC [G5U C8U G22C G29C] | 0.03 |
| GGCAGAGCUCAACACUGCGUGGCAAAGUGACUGUGGUUAGACUGCC [A16U G30A C37U] | 0.08 |
| GGCAGAGCUCAGCACAGCGUGGUAAAGUCGCUGUGGCUAGACUGCC [A12G C23U G29C] | 0.03 |
| GACAGGGCUCAACAGAGCGUGGCAAAGUGGCUUUGCCUAGACUGCC [G2A A6G C15G G33U G36C] | 0.01 |
| GGCAGACCUAGACACAGCGUAGCAAAGUGGCUGUGGCUAGACUGCG [G7C C10A A11G G21A C46G] | 0.01 |
| GACAAAGCUCAACACAGCGUGGCAAAGUGGCUGUGGCAAGACUGCU [G2A G5A U38A C46U] | 0.33 |
| GGCAGAGCUCCGCACAGCGUGGUAAAGUGGCUAUGGCUAGACUGCC [A11C A12G C23U G33A] | 0.02 |
| GGCAAAGCUCAACACAGCAUGGAAAAGUGGCUGUGGUUAGACUGCC [G5A G19A C23A C37U] | 0.03 |
| GGCAGAGCUCGAGACAGCGUUGCAAAGUGGCUGUGGCUAGAAUGCC [A11G C13G G21U C42A] | 0.01 |
| GGCAGAACGCAACACAGCGUGGCAAAGUGGCUGUGGCUAGCCUGCC [G7A U9G A41C] | 0.03 |
| GGCGGAGUUCAACACAGCGUGGCAAAGUGGCUCUGGCUAGUCUGCC [A4G C8U G33C A41U] | 0.03 |
| GGCAGAGCUCAACACAGCGUGGCAAAGUGAGUGUGUCUAGACUGCC [G30A C31G G36U] | 0.01 |

| Variant | self-cleavage |
| --- | --- |
| GGCAGAGAUCAAAACAGCGUGGCAAACUGGCUGUGGCUAGACUGCC [C8A C13A G27C] | 0.1 |
| GGGAGAACUCAACACAGCGAGGCAAAGUGGCUGUGGCUAGACUGCC [C3G G7A U20A] | 0.38 |
| GGCAGAGCUCAACACAGCGCGGCAAAGUGGCUCUGCCUAUACUGCC [U20C G33C G36C G40U] | 0.03 |
| GGCUGAGCUCAACACAACGUGGCAAAGUGGCUGUGGCUAGACUGCA [A4U G17A C46A] | 0.05 |
| GGAAUAGCUCAACACAGCGUGGCAAAGUGGCUGUGCCUAGACUGAC [C3A G5U G36C C45A] | 0.12 |
| GGCAGAGCUCAACACACCGCGGCAAAGUGGCUGUGGCUAGACUGCU [G17C U20C C46U] | 0.05 |
| GGCAGAGCUCAAAAUAGCGUGGCAAAGUCGCUGUGGCUAGACUGCC [C13A C15U G29C] | 0.07 |
| GGCAGAGCUCAACACAGCGUGUCAAAGUGGCUGUGGCGUGACUGCC [G22U U38G A39U] | 0.05 |
| GGAAGAGCUCAGCACAGCGUGGCAAAGUGGUUGUGGUUAGACAGCC [C3A A12G C31U C37U U43A] | 0.17 |
| GGCAGAGCUCAACACAGCAUGGCAAAGUUGCCAUGGCUAGACUGCG [G19A G29U U32C G33A C46G] | 0.05 |
| GGCAGAGCUCAACACAGCGUUACAAAGUGGCUGUGGCUAGCCUGCC [G21U G22A A41C] | 0.11 |
| GCCCGACCUCAACACAGUGCGGCAAAGUGGCUGUGGCUAGACUGCC [G2C A4C G7C C18U U20C] | 0.14 |
| CGCGGAGCUCAGCACAGCGGGGCAACGUGGCUGUGGAUAGACAGCC [G1C A4G A12G U20G A26C C37A U43A] | 0 |
| GGCAGAGUUCAACACGGCGUGGGAAAGUGACUGUGGCUAGACUGCC [C8U A16G C23G G30A] | 0.08 |
| GACAGAGCUCAACACAGCGUGGCAAAGUGGGUUUGUCUCGACUGCC [G2A C31G G33U G36U A39C] | 0.03 |
| GGCAGAGCUCAACACAGCGUGGCAAUGUGGCCGUGGCUACACUGCC [A26U U32C G40C] | 0.01 |
| GGCAGAGCUCAACACAGCGUGGCAAGGUGGCUGUGGGUAGACUACC [A26G C37G G44A] | 0.01 |
| GGCAGAGCUCAAAACAGAGUGGCAAAGUGGCUAUGGCUAUACCGCC [C13A C18A G33A G40U U43C] | 0.06 |
| GGCAGAGCUCAAGACAGCGUGGCAAAGUGGCUGUGGCUACACUGUC [C13G G40C C45U] | 0.12 |

| Variant | self-cleavage |
| --- | --- |
| GCCAGAGCUUUACACAGCGUGGCAAAGUGGCUGUGGCUAGACUGCC [G2C C10U A11U] | 0.03 |
| GGCAGAGCUCAACACAGCGUGGCAAAGUGGCAGUGCUUAGACUGCC [U32A G36C C37U] | 0.02 |
| GGCUGAGCUAAACACAGCGUGGCUAAGUGCCUGUGCCUAGUCUGGU [A4U C10A A24U G30C G36C A41U C45G C46U] | 0.01 |
| GGCAGUGCUCAACACGGCGUGGCAAAGUGGCGGUGGCUGGACUGCC [A6U A16G U32G A39G] | 0.02 |
| GGCAGAGCUCAACAAAGAGUGGUAAAAUGGCUGUGGCUAGGCUGCC [C15A C18A C23U G27A A41G] | 0.03 |
| GGCAGAGCUCACCACAGCGUGGCAAAUUGGAUGUGGCUAGACUGCC [A12C G27U C31A] | 0.04 |
| GGCGGAGCUCAACACAGCGUGACAAAGUGGCUGCGGCUAGACUGCC [A4G G22A U34C] | 0.09 |
| GGCAGAGCUCAACACAGCUUGGCUAAGUUGCCGUGGUUAGACUGCC [G19U A24U G29U U32C C37U] | 0.04 |
| GGCAGAAUUCAACACAGCGUGGCAAAGCGGCUCUGGCUAGACUGCC [G7A C8U U28C G33C] | 0.3 |
| GGAAGAGCUCAACACAGAUUGGCAAAGUGGCUGUGGCUAGGCUCCC [C3A C18A G19U A41G G44C] | 0.04 |
| GCCAGAGCUCAACACAGCGUGGCAAAGUGGCUUCGGCUAGACUGGC [G2C G33U U34C C45G] | 0.08 |
| GGCAGAGCUGGACACAGCGUGGCAAAGUGGCUGAGGCUAGACUGCC [C10G A11G U34A] | 0.01 |
| CGCAGAGCUCAAGACAGCGCGGCAAAGUAGCUGUGGCUAGACUGGC [G1C C13G U20C G29A C45G] | 0.04 |
| GACAGAGCUCAACAGAGCGUGGCAAAGUUGCUCUGGCUAAACUGCC [G2A C15G G29U G33C G40A] | 0.01 |
| GGCAGAGCUCAACACAGCGUGGCAAACUAGCUGUGGCUAGACUGCA [G27C G29A C46A] | 0.08 |
| GGGAGAGCUCAACACAGCGUGACAAAGUUGCUGUGGCUAGACUGCC [C3G G22A G29U] | 0.23 |
| GGCAGCGCUCAUCACUGCGUGGCAAAGUGGCUGUGGCUAGACUGCC [A6C A12U A16U] | 0.02 |
| GGCGGAGCUCAGCCCAGCGAGGCAAAGCGGCUGUGGCUAGACUGCC [A4G A12G A14C U20A U28C] | 0.02 |
